From the supplement of paper PMC3334620
Over roughly 33,000 sequences, “E-score (-0.5 to 0.5)” has its median near -0.035; the highest 2% begin near 0.34. Some of the results follow.

Biological target: T1, Mot3 (UniProt P54785)
T1 sequence: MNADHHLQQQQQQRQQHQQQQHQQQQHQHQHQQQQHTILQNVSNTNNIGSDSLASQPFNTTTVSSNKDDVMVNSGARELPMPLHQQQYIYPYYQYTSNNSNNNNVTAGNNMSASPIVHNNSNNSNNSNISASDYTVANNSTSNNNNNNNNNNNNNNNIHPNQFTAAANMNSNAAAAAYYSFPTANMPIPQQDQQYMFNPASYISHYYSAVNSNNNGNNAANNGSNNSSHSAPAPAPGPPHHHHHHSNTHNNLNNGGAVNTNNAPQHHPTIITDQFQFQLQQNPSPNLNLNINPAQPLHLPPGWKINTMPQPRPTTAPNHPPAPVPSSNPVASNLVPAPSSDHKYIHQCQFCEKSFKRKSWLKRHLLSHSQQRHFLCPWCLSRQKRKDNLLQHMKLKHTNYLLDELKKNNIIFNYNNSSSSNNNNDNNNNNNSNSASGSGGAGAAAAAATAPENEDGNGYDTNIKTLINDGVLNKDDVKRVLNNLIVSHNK
Assay: PBM E-score (8-mer binding enrichment) (E-score (-0.5 to 0.5)); higher = stronger / more preferred TF binding; most listed sequences are background and not binding sites
Settings: protein concentration: 200 nM; construct: GST-full length
Method in brief: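 Universal all-10-mer Agilent arrays, double-stranded by primer extension on fresh or once-stripped slides, were probed with about 100-200 nM GST-tagged yeast transcription factors made by PURExpress. Fluorescent anti-GST detected bound protein, and masliner normalised the scans. E-scores from the Universal PBM Analysis Suite were given to each ungapped eight-base word pooled with its reverse complement.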

In order of rising “PBM E-score” value:
1. CCCCCCCC  -0.42
2. AGGGACTC  -0.387
3. CCCTGGGC  -0.368
4. CCGGGGCC  -0.357
5. GACGGGGA  -0.354
6. CCCCGGTA  -0.335
7. AGGGCGGA  -0.316
8. CTGGAGCA  -0.299
9. AGTGCCCC  -0.292
10. CCGTGCAC  -0.285
11. CACCCCCC  -0.273
12. CGTGGAAC  -0.263
13. CCGTAGTC  -0.262
14. GAGCTGGC  -0.259
15. ATCTCCGG  -0.256
16. ACGGAGTC  -0.244
17. CCCGAATC  -0.243
18. ATCCTCCC  -0.24
19. CGCTCCAC  -0.234
20. AGGTCCTA  -0.217
21. CCTCCCCC  -0.214
22. GGATGGGA  -0.214
23. GACGGCTC  -0.209
24. TCTCTCCA  -0.208
25. GTCGGCGA  -0.208
26. CATCGGGG  -0.203
27. CGCCATTC  -0.202
28. ATCCTATG  -0.198
29. CCTGTCCC  -0.19
30. CAGCTCAG  -0.188
31. TCCCAGAA  -0.18
32. GACCCTAC  -0.177
33. CCCGTGAG  -0.175
34. TCGAGACA  -0.173
35. CGTCCAGC  -0.17
36. CCATTCAG  -0.162
37. CTGATCAC  -0.15
38. AGGGCCTC  -0.148
39. CGGAGTAC  -0.147
40. ACCAAGTG  -0.143
41. TGATCCCA  -0.142
42. CACTTAGC  -0.135
43. CGAGCTTA  -0.135
44. AGCGACAA  -0.129
45. GCCGTCAA  -0.127
46. AAGCGCAG  -0.124
47. GAGGACGC  -0.122
48. AAACCTCA  -0.122
49. GTCCGATA  -0.121
50. ATATTCGA  -0.121
51. AGGCGGGG  -0.117
52. CTTCTGCC  -0.117
53. GCATGAGC  -0.115
54. CCCTTCAC  -0.114
55. ATAGCGAT  -0.11
56. AAATGCCA  -0.105
57. ACCCACTA  -0.102
58. CGCGGAGA  -0.0988
59. AAACGACC  -0.0983
60. ACGTCAGG  -0.098
61. TATGGCAA  -0.0849
62. CGTCATCA  -0.0819
63. GTTTGGCA  -0.0797
64. GCTTTGAA  -0.0793
65. TATGCCGA  -0.0784
66. CTGCCGTA  -0.0781
67. GAATGAGC  -0.0737
68. CAGATGCC  -0.0717
69. AAATTTTC  -0.0703
70. GGTCGAAA  -0.0692
71. GGTTCGTA  -0.0682
72. TCGACTAA  -0.0673
73. CGCACTTA  -0.067
74. CCTATCTC  -0.0667
75. CATACAGA  -0.0665
76. CGCGGGCC  -0.0658
77. AATGAGGT  -0.0627
78. ATATTTCC  -0.0617
79. GGTCATAA  -0.061
80. AGTATCCG  -0.0586
81. ACCTATCC  -0.0553
82. CATGGTAC  -0.048
83. TCGCCTCA  -0.043
84. CCTTACTA  -0.0342
85. ACGTGAAC  -0.0329
86. CCCACAAG  -0.0301
87. CTAGTCTC  -0.0298
88. ATATCCGA  -0.0238
89. AAATACCC  -0.0215
90. ATTGTGGC  -0.0184
91. CAAGGAGC  -0.0153
92. AAAACAGC  -0.0141
93. CTCCGTTA  -0.0131
94. ATTTCTGG  -0.00973
95. GGAGGATA  -0.00959
96. CACGGACC  -0.00933
97. CATGACTA  -0.00873
98. GCTTGGTA  -0.00245
99. ACAGCCTC  -0.00172
100. AAGGCTGT  0.00261
101. GGCGCGAC  0.00273
102. CACTTCTA  0.00307
103. ACTTGTGG  0.00314
104. ACGTCAAG  0.00531
105. GGTACTCA  0.0108
106. GTATGCGA  0.0114
107. GCACCATA  0.017
108. CTTTTGTC  0.0279
109. AATTAATG  0.034
110. AACCCTAG  0.0349
111. CAAACTTC  0.0359
112. CATTACCA  0.0379
113. TAACGATA  0.0454
114. ATTGTGGA  0.0501
115. CATTTTAG  0.0505
116. ATCTCGAA  0.0527
117. GTGCTCAA  0.0538
118. AAGAACGA  0.0545
119. AATCAATC  0.0571
120. ATTCGAAG  0.0612
121. AGCTAAAA  0.0642
122. CAAGGACC  0.0666
123. TAGGGTAA  0.0681
124. ATTAATAA  0.072
125. TATCACAA  0.072
126. GGTAACCA  0.0763
127. AAGGTTTG  0.0771
128. CCTGTTCA  0.0813
129. AAATGACA  0.0822
130. CGTGTCCA  0.0828
131. TGTCGCAA  0.0879
132. TGATCGAA  0.0888
133. CCTGATCC  0.0889
134. ATAATAGC  0.0909
135. AAGGATCG  0.0926
136. GATTAAAC  0.0928
137. ATCATGAT  0.0944
138. CATCGAGG  0.0972
139. AAAGGCTG  0.0993
140. CAACGCAC  0.102
141. TAGAGCAA  0.105
142. AGCGTACC  0.113
143. AATGGTGT  0.113
144. CTGTGAGC  0.119
145. CTGCTACA  0.121
146. AGAAAGTA  0.121
147. CACTACAG  0.127
148. ACACTGTA  0.13
149. ATTCCTGA  0.136
150. AACGAGCA  0.137
151. TCGGTACA  0.141
152. CCCGCAGG  0.152
153. AGAACCTG  0.156
154. AAAAGCCA  0.171
155. CCCTACAC  0.187
156. ATTATTTA  0.19
157. ATGGCATG  0.191
158. ATGTCGTA  0.191
159. AAGCTTGT  0.196
160. CGCGGTAA  0.204
161. TAGTACAA  0.216
162. ACAGATAA  0.234
163. GATGTTAA  0.268
164. CCGTGTCA  0.277
165. ATGTAGTC  0.287
166. ACACAGGA  0.295
167. AGGTACTA  0.301
168. ACGTGAAA  0.323
169. TACACGTA  0.362
170. TCTTTACA  0.389
171. ACGTGTAA  0.414
172. AAGGCACA  0.492
